# About 2,200 (0.71%) of roughly 310,000 compounds showed an effect of 50% or more. The effect is printed as a negative number. The list shows a part of the results.
# Target: human ether-à-go-go-related gene (hERG) potassium channel (human, UniProt Q12809)
# Test: primary screen, population patch clamp on CHO cells stably expressing hERG
# Chain of human ether-à-go-go-related gene (hERG) potassium channel (Q12809 whole entry, looked up): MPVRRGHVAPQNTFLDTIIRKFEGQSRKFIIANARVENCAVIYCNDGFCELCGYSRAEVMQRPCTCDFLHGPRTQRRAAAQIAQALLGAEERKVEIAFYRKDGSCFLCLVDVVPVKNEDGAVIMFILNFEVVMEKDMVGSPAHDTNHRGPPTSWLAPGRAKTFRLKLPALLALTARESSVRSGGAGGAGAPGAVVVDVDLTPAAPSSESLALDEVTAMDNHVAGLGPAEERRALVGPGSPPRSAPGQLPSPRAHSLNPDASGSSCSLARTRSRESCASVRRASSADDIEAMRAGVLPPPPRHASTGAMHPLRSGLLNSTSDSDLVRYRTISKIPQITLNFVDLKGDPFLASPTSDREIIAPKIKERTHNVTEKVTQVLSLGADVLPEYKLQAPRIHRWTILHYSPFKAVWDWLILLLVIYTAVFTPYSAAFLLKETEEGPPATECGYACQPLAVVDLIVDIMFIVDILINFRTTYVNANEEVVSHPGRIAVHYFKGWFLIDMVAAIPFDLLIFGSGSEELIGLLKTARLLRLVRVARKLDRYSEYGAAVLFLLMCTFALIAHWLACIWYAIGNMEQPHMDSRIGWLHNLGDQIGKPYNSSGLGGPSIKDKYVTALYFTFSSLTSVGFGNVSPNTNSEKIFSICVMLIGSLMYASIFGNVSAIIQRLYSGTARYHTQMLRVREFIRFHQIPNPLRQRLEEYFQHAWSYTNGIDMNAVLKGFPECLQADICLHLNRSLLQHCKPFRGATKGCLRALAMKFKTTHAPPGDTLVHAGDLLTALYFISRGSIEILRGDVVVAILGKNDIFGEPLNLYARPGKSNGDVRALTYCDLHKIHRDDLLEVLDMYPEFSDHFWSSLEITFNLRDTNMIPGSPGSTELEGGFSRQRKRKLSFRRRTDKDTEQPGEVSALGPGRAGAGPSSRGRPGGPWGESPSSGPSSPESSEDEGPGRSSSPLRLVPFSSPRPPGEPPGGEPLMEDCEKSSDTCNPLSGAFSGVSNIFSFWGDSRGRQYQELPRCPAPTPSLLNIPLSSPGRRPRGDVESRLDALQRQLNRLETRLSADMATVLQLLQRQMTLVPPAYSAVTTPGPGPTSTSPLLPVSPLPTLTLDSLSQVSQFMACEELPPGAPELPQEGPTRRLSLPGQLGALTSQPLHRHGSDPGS
row,Compound,"hERG current change (%, negative = inhibition) at 1uM"
1,CC(C)OC(=O)c1ccc(COC(=O)CNC(=O)c2ccco2)cc1,8.6%
2,C(#CC12CC3CC(CC(C3)C1)C2)CN1CCOCC1,11.9%
3,CCOc1ccc(NC(=O)CSc2nc3c(c(=O)n2-c2ccccc2OC)SCC3)cc1,12.5%
4,N#CCCCN1C(=O)C(O)(CC(=O)c2ccc3c(c2)OCCO3)c2ccccc21 (stereo not drawn),15.6%
5,O.O=C(O)[C@@H]1[C@H]2C[C@H]3c4[nH]c5ccccc5c4CCN3C[C@@H]2CC[C@@H]1O,12.4%
6,Cc1onc(-c2ccccc2)c1C(=O)Nc1cc(C(F)(F)F)ccc1N1CCOCC1,-12%
7,Cc1snc(SCc2ccc(Cl)cc2)c1C#N,13.1%
8,Cc1ccc(NC(=O)CC2OC(=O)c3ccccc32)cc1S(=O)(=O)N1CCCCCC1 (stereo not drawn),9.38%
9,COc1ccccc1NC1=C(Cl)C(=O)N(C2CCCCC2)C1=O,11.8%
10,Cc1ccc(C(=O)OCC(=O)NCc2ccc(Cl)cc2Cl)o1,9.43%
11,CN(Cc1ccc(Cl)s1)C(=O)CSc1nnc(C2CC2)n1C1CC1,3.28%
12,CSc1ccccc1OCc1cc(C(=O)N(C)Cc2ccncn2)no1,7.93%
13,Cc1ccc(S(=O)(=O)CCC(=O)Nc2nnc(-c3ccccc3S(C)(=O)=O)o2)cc1,-0.117%
14,O=C(Nc1ccc(C(F)(F)F)cc1Cl)c1ccc(Cn2cc(Br)cn2)o1,1.86%
15,CCN1CCN(c2nc(-c3ccccn3)nc3ccccc23)CC1,-17.5%
16,CCN1CCN(c2nc([N+](=O)[O-])nn2C)CC1,8.74%
17,CCn1c(SCC(N)=O)nnc1-c1ccc(OC)c(OC)c1,19.4%
18,COCCCNC(=O)c1cccc(NC(=O)c2ccccc2)c1,5.05%
19,CC(C)c1cc(C(=O)N2CCCC(CCC(=O)NCc3ccccc3F)C2)n(C)n1 (stereo not drawn),10%
20,Cl.OC(COc1ccc(Br)cc1)CN1CCOCC1 (stereo not drawn),2.57%
21,CC(=O)Nc1ccc(Nc2nc3ccccc3n3cnnc23)cc1,9.36%
22,Cc1ccc(-n2nc(C)c3c2OC(N)=C(C#N)C3c2cccs2)cc1 (stereo not drawn),9.08%

row,Compound,"hERG current change (%, negative = inhibition) at 1uM"
1,O=C(CCCCl)NC(=S)Nc1cc(C(F)(F)F)ccc1N1CCOCC1,-12.3%
2,COc1ccc(S(=O)(=O)NCCSc2ccc(C)cc2)cc1OC,7.73%
3,N#CCC(=O)N1CCN(C=O)CC1,2.78%
4,COC(=O)/C(=C\Nc1ccc(OC)cc1)NC(=O)c1ccc(Cl)cc1Cl,8.83%
5,COc1ccc(C(=O)NCCOc2ccccc2)cc1S(=O)(=O)N1CCOCC1,5.18%
6,Cc1cccn2c(=O)c3cc(S(=O)(=O)c4ccccc4)c(=N)n(Cc4ccco4)c3nc12,5.3%
7,O=C(NC1CC2CCC1C2)c1ccc(CN2CCOCC2)cc1 (stereo not drawn),6.26%
8,CCOC(=O)C1(C(F)(F)F)N=C(c2cccnc2)OC(N2CCCCC2)=N1 (stereo not drawn),11.2%
9,O=C1C=C(c2cccc(O)c2)CCC1,12.4%
10,O=c1c2c3c(sc2n2cnnc2n1CCc1ccccc1)CCCC3,7.42%
11,O=S(=O)(NCC1CCCO1)c1cccc2nsnc12 (stereo not drawn),9.58%
12,O=C1NC(=O)N(Cc2ccccc2)C(=O)/C1=C/c1cnc(-c2ccccc2)nc1,13.1%
13,Cc1cccc(-n2[nH]c3c4c(ccc3c2=O)C(=O)c2ccccc2C4=O)c1,9.28%
14,O=C(CC(=O)c1ccccc1)Nc1cc([N+](=O)[O-])ccc1Cl,11.3%
15,C#CC(CC)(CC)NC(=S)Nc1ccc(S(N)(=O)=O)cc1,12.3%
16,O=C1NCCN(Cc2cccc(Oc3ccccc3)c2)C1CC(=O)N1CCCCC1 (stereo not drawn),12.7%
17,COC(=O)CSc1nc(C)c2c(n1)CCCC2,-12.4%
18,[N-]=[N+]=NC[C@H](Cc1ccccc1)N1CC[C@@H](NC(=O)OCc2ccccc2)CCC1=O,-13.1%
19,CCN(CC)C(=O)c1ccc(NC(=O)COC(=O)c2ccc(Cl)s2)cc1,-0.025%
20,COc1ccc(NC(=S)N2CCOCC2)c(OC)c1,10.1%
21,Cn1c(SCC(=O)N2CCN(S(=O)(=O)c3ccccc3)CC2)nc2ccccc21,6.74%
22,CC(=O)NC(Cc1ccc(F)cc1)C(=O)NC1CCN(c2ncccc2[N+](=O)[O-])CC1 (stereo not drawn),18%

row,Compound,"hERG current change (%, negative = inhibition) at 1uM"
1,CC(C)OCCCNC(=O)CCC(=O)NNc1nc2ccccc2c2nc(-c3ccccc3)nn12,1.31%
2,FC(F)(F)c1cccc(OCC2CNC(=S)O2)c1 (stereo not drawn),2.22%
3,CCN(CC)S(=O)(=O)c1cccc(C(=O)Nc2cc3oc4ccccc4c3cc2OC)c1,10.4%
4,COc1ccc(NC(C)=O)cc1NC(C)C(=O)Nc1cccc(S(=O)(=O)N2CCOCC2)c1 (stereo not drawn),9.65%
5,Cc1cccc(C)c1NC(=O)CCCCCNS(=O)(=O)c1ccccc1,8.52%
6,COc1cc(C(=O)OCCc2c(C)nc3nc[nH]n3c2=O)cc(OC)c1OC,20.4%
7,c1ccc(P(c2ccccn2)c2ccccn2)cc1,12.2%
8,CC(=O)c1c(C)oc2ccc(OCc3ccccc3)cc12,3.03%
9,Oc1oc(-c2ccccc2)nc1C=NCc1ccccc1,16.8%
10,O=C(COC(=O)c1cccc(S(=O)(=O)N2CCOCC2)c1)Nc1nc(-c2ccccc2Cl)cs1,-3.93%
11,CNCC(=O)Nc1ccc(OC(F)(F)F)cc1.Cl,2.4%
12,O=C(Cc1ccccc1)NCC(=O)OCC(=O)c1ccc(Cl)cc1,11.8%
13,CN(C)S(=O)(=O)c1cccc(CNCC2COc3ccccc3O2)c1.O=C(O)C(=O)O (stereo not drawn),-0.379%
14,CNC(=S)Nc1cc(Cl)ccc1Oc1ccccc1,0.574%
15,COC(=O)C1=C(CCc2ccccc2)NC(=O)NC1c1ccc(Cl)cc1 (stereo not drawn),8.42%
16,O=C(NC1CN2CCC1CC2)c1cccc(Cl)c1 (stereo not drawn),5.21%
17,CCCCN=Cc1sc2ccc(OCC)cc2c1O,12.7%
18,COc1ccc([C@H]2[C@H](C(=O)C(C)(C)C)N3N=Cc4ccccc4C3[C@]23N=C(c2ccccc2)OC3=O)cc1OC (stereo partly drawn),7.61%
19,CC1=NCCN1CCNC(=O)Nc1ccc(F)cc1,14.9%
20,c1ccc(N2CCN(Cc3cn4cccnc4n3)CC2)cc1,11.3%
21,CCC(=O)N1CCc2cc(S(=O)(=O)CCC(=O)NCc3ccc(OC)cc3)ccc21,9.06%
22,CCOC(=O)N1CCN(C(=O)c2ccc(CN(c3ccc(C)c(C)c3)S(C)(=O)=O)cc2)CC1,2.46%

row,Compound,"hERG current change (%, negative = inhibition) at 1uM"
1,CCC(C)NCCOCCOc1ccc(Cl)c2ccccc12.O=C(O)C(=O)O (stereo not drawn),6.37%
2,CSCC[C@H](NC(=O)[C@H](Cc1ccccc1)n1c(=O)[nH]c2ccccc2c1=O)C(=O)N[C@@H](Cc1ccccc1)C(=O)O,11.4%
3,NC(=O)c1noc(C(=O)N(CC(=O)NC2CCCC2)Cc2ccc3c(c2)OCO3)c1N,11.4%
4,O=C(NN1C(=O)C2C(c3ccccc3)C=CC(c3ccccc3)C2C1=O)c1ccccc1 (stereo not drawn),12.9%
5,O=C(NC(=S)N1CCOCC1)c1cc2ccccc2o1,8.7%
6,Cc1cccc(NC(=O)CSc2nnc(C)c(=O)n2N)c1C,12.4%
7,CC1(OC(=O)c2ccc(Cl)nc2)C(=O)C=C2C=C(c3ccsc3)OC=C2C1=O (stereo not drawn),12.9%
8,COc1ccc(NC(=O)CN(C)C(=O)c2cc3c(cc2Cl)N2CCCCCC2=NS3(=O)=O)cc1,19.5%
9,CCOC(=O)C1CCN(C(=O)C2CCC(=O)N(CC3CCCCC3)C2)CC1 (stereo not drawn),9.22%
10,CSc1oc(-c2ccco2)nc1S(=O)(=O)c1ccc(C)cc1,15.8%
11,O=C(/C=C/c1cccc([N+](=O)[O-])c1)NCCSCc1ccc(Cl)cc1,2.23%
12,CCc1cc(=O)oc2cc(OCC(=O)N3CCC(C(=O)O)CC3)ccc12,9.74%
13,COc1ccc(CN2CCC(N3CC(C)OC(C)C3)CC2)c(OC)c1.O=C(O)C(=O)O (stereo not drawn),9.1%
14,CCOC(=O)Cn1c(C)c(Br)c(COC)c(C#N)c1=O,14.8%
15,COc1ccc(CNC(=S)N/N=C(\C)c2ccc(OC)cc2)cc1,11.3%
16,COc1ccc(-c2c(C(F)(F)F)oc3cc(OCC(=O)Nc4ccccc4C(F)(F)F)ccc3c2=O)cc1OC,11.3%
17,O=C1CNC(=S)N1CCc1ccccc1Cl,12.3%
18,CCOc1ccc(C(=O)NC(=S)Nc2ccccc2N2CCC(C)CC2)cc1[N+](=O)[O-],10.9%
19,COc1cccc(C2=NN(C(C)=O)C(c3cccs3)C2)c1 (stereo not drawn),16.3%
20,C/C(=N/NC(=O)CNC(=O)Cc1ccc(Cl)cc1)c1ccco1,5.31%
21,CCOc1ccc(-c2ccc(SCC)nn2)cc1,11.7%
